Results reported in PubChem BioAssay AID212 (DTP/NCI, 2004).
Records with an inconclusive call do not appear. A number of entries come with more than one value. This list holds those alone. The source may hold further records. Values given together differ, and nothing given here explains why; they may come from other doses, times, organisms or constructs than stated.

System: BDF1 mice, colon carcinoma 38 sc, T/C %
Test: NCI In Vivo Anticancer Drug Screen. Data for tumor model Colon Carcinoma 38 (subcutaneous) in B6D2F1 (BDF1) mice
Conditions: endpoint: median tumor weight (est.), schedule: Q07DX002 (ip), higher = larger tumour
Description: The antitumor activity of compounds was measured in mice bearing transplantable tumors. Survival or tumor size were measured and the results are expressed as the measurement made in the treated group (T) divided by the measurement made in the vehicle treated control group (C). The tumor model used in this assay is Colon Carcinoma 38 (subcutaneous) in B6D2F1 (BDF1) mice

**Q.** With `COc1cccc2c1C(=O)c1c(O)c3c(c(O)c1C2=O)C[C@@](O)(C(=O)CO)C[C@@H]3OC1CC(N)C(O)C(C)O1` (stereo not given in full) as the compound, how does the T/C (dose: 0.75 mg/kg/injection, vehicle: water) read?
**A.** 47 % of control and 110 % of control

**Q.** What about the T/C (dose: 1.5 mg/kg/injection, vehicle: water) of the same compound?
**A.** 84 % of control and 122 % of control

**Q.** What about the T/C (dose: 3.0 mg/kg/injection, vehicle: water) of the same compound?
**A.** 52 % of control, 74 % of control, 96 % of control

**Q.** And the T/C (dose: 6.0 mg/kg/injection, vehicle: water)?
**A.** 31 % of control, 74 % of control, 83 % of control

**Q.** How did the T/C (dose: 0.32 mg/kg/injection, vehicle: Klucel (hydroxypropylcellulose) (HPC)) turn out when `COC1C(O)CC(OC2CC(Oc3cc4cc5c(c(O)c4c(O)c3C)C(=O)[C@@H](OC3CC(OC4CC(OC6CC(C)(O)C(OC(C)=O)C(C)O6)C(O)C(C)O4)C(O)C(C)O3)[C@H]([C@H](OC)C(=O)[C@@H](O)[C@@H](C)O)C5)OC(C)C2OC(C)=O)OC1C` (stereo not given in full) was run?
**A.** 87 % of control and 117 % of control
